Test results as given in the antibiotic and cytotoxicity screens of Wong et al. (2023).
The list shows a part of the results.

Key:
[1] = system: HSkMC (human skeletal muscle cells); assay: cytotoxicity call (relative viability < 0.9); details: 10 µM
[2] = system: HepG2; assay: cytotoxicity call (relative viability < 0.9); details: 10 µM
[3] = system: S. aureus RN4220; assay: growth inhibition call (relative growth <= 0.2); details: 50 µM

For `CS(=O)(=O)N1C[C@H](O)COC[C@@H]2O[C@@H](CC(=O)NCCc3ccncc3)CC[C@H]21`, which cytotoxicity call [1] is on record?
Its cytotoxicity call is “inactive”.

And the cytotoxicity call [2]?
The cytotoxicity call was “inactive”.

And the growth inhibition call [3]?
Its growth inhibition call is “inactive”.

With `C[C@@H]1CN([C@H](C)CO)C(=O)c2cc(N(C)C)ccc2O[C@@H](C)CCCCO[C@@H]1CN(C)C(=O)CCCN(C)C` as the molecule, how does the cytotoxicity call [1] read?
The cytotoxicity call was “inactive”.

And the cytotoxicity call [2]?
Its cytotoxicity call is “inactive”.

What about the growth inhibition call [3] of the same molecule?
The growth inhibition call was “inactive”.

What does the source list for `Cc1ccnc(NC(=O)Cn2cnc3c2c(=O)n(C)c(=O)n3C)n1`?
cytotoxicity call [1]: inactive; cytotoxicity call [2]: inactive; growth inhibition call [3]: inactive

How did the cytotoxicity call [1] turn out when `C[C@H](CO)N1C[C@H](C)[C@H](CN(C)S(=O)(=O)c2ccc(F)cc2)Oc2c(NS(=O)(=O)c3cccs3)cccc2C1=O` was run?
Its cytotoxicity call is “inactive”.

And the cytotoxicity call [2]?
Its cytotoxicity call is “inactive”.

What about the growth inhibition call [3] of the same molecule?
The growth inhibition call was “inactive”.

For `N#CCC(=O)NN`, which cytotoxicity call [1] is on record?
The cytotoxicity call was “inactive”.

And the cytotoxicity call [2]?
Its cytotoxicity call is “inactive”.

What about the growth inhibition call [3] of the same molecule?
Its growth inhibition call is “inactive”.

Which results are given for `COCCOC(=O)N1C(=O)[C@@]2(c3ccccc31)[C@H](c1ccc(OCCO)cc1)N1[C@H](c3ccccc3)[C@H](c3ccccc3)OC(=O)[C@H]1[C@@H]2C(=O)Nc1nc2ccccc2s1`?
cytotoxicity call [1]: inactive; cytotoxicity call [2]: inactive; growth inhibition call [3]: inactive

With `c1ccc(-c2nc3ccccc3o2)nc1` as the molecule, how does the cytotoxicity call [1] read?
The cytotoxicity call was “inactive”.

What about the cytotoxicity call [2] of the same molecule?
The cytotoxicity call was “inactive”.

And the growth inhibition call [3]?
Its growth inhibition call is “inactive”.

With `C[C@H](CO)N1C[C@H](C)[C@@H](CN(C)CC2CC2)Oc2c(NS(=O)(=O)c3cn(C)cn3)cccc2C1=O` as the molecule, how does the cytotoxicity call [1] read?
Its cytotoxicity call is “inactive”.

What about the cytotoxicity call [2] of the same molecule?
Its cytotoxicity call is “inactive”.

What about the growth inhibition call [3] of the same molecule?
The growth inhibition call was “inactive”.

How did the cytotoxicity call [1] turn out when `C[C@@H]1CN([C@@H](C)CO)C(=O)c2cccc(NC(=O)Nc3ccc(C(F)(F)F)cc3)c2O[C@H]1CN(C)C(=O)NC1CCCCC1` was run?
Its cytotoxicity call is “active”.

What about the cytotoxicity call [2] of the same molecule?
The cytotoxicity call was “active”.

What about the growth inhibition call [3] of the same molecule?
Its growth inhibition call is “inactive”.

For `C[C@@H]1CN([C@@H](C)CO)C(=O)c2cc(NS(C)(=O)=O)ccc2O[C@@H]1CN(C)Cc1ccc(C(F)(F)F)cc1`, which cytotoxicity call [1] is on record?
The cytotoxicity call was “inactive”.

What about the cytotoxicity call [2] of the same molecule?
Its cytotoxicity call is “inactive”.

What about the growth inhibition call [3] of the same molecule?
Its growth inhibition call is “inactive”.
